Where a chain is given by its changes, count along the chain named. Some of the results follow.
T1: RBFOX1 RRM RbFoxmut (Fox-RRM*) (Homo sapiens, UniProt Q9NWB1 109-208, R118D;E147R;N151S;E152T)
T1 sequence: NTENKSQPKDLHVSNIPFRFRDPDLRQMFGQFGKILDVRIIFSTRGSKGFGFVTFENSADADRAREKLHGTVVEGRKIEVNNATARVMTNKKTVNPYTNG

B1: GGGAGCG (DNA:RNA)
RNA: GGGAGACCGGAAUUCAGAUUGUCCGGGAGCGUUAAAUCCCGUCGUAGCCACCA
DNA 1: CAATCTGAATTCCGGTCTCCC
DNA 2: TGGTGGCTACGACGGGATT
B2: UCUCACU (DNA:RNA)
RNA: B1 RNA with G25U, G26C, G27U, A28C, G29A, G31U
DNA 1: CAATCTGAATTCCGGTCTCCC
DNA 2: TGGTGGCTACGACGGGATT
B3: UAAUCUG (DNA:RNA)
RNA: B1 RNA with G25U, G26A, G27A, A28U, G29C, C30U
DNA 1: CAATCTGAATTCCGGTCTCCC
DNA 2: TGGTGGCTACGACGGGATT
B4: CGAGAGU (DNA:RNA)
RNA: B1 RNA with G25C, G27A, A28G, G29A, C30G, G31U
DNA 1: CAATCTGAATTCCGGTCTCCC
DNA 2: TGGTGGCTACGACGGGATT
B5: UGGUAUU (DNA:RNA)
RNA: B1 RNA with G25U, A28U, G29A, C30U, G31U
DNA 1: CAATCTGAATTCCGGTCTCCC
DNA 2: TGGTGGCTACGACGGGATT
B6: CAAAGAU (DNA:RNA)
RNA: B1 RNA with G25C, G26A, G27A, C30A, G31U
DNA 1: CAATCTGAATTCCGGTCTCCC
DNA 2: TGGTGGCTACGACGGGATT
B7: CAGACCG (DNA:RNA)
RNA: B1 RNA with G25C, G26A, G29C
DNA 1: CAATCTGAATTCCGGTCTCCC
DNA 2: TGGTGGCTACGACGGGATT
B8: GCAGCCU (DNA:RNA)
RNA: B1 RNA with G26C, G27A, A28G, G29C, G31U
DNA 1: CAATCTGAATTCCGGTCTCCC
DNA 2: TGGTGGCTACGACGGGATT
B9: UGAGCCC (DNA:RNA)
RNA: B1 RNA with G25U, G27A, A28G, G29C, G31C
DNA 1: CAATCTGAATTCCGGTCTCCC
DNA 2: TGGTGGCTACGACGGGATT
B10: AACGGCG (DNA:RNA)
RNA: B1 RNA with G25A, G26A, G27C, A28G
DNA 1: CAATCTGAATTCCGGTCTCCC
DNA 2: TGGTGGCTACGACGGGATT
B11: AAGAAUA (DNA:RNA)
RNA: B1 RNA with G25A, G26A, G29A, C30U, G31A
DNA 1: CAATCTGAATTCCGGTCTCCC
DNA 2: TGGTGGCTACGACGGGATT
B12: ACUUGUC (DNA:RNA)
RNA: B1 RNA with G25A, G26C, G27U, A28U, C30U, G31C
DNA 1: CAATCTGAATTCCGGTCTCCC
DNA 2: TGGTGGCTACGACGGGATT
B13: AGCAGAA (DNA:RNA)
RNA: B1 RNA with G25A, G27C, C30A, G31A
DNA 1: CAATCTGAATTCCGGTCTCCC
DNA 2: TGGTGGCTACGACGGGATT
B14: GACUCCU (DNA:RNA)
RNA: B1 RNA with G26A, G27C, A28U, G29C, G31U
DNA 1: CAATCTGAATTCCGGTCTCCC
DNA 2: TGGTGGCTACGACGGGATT
B15: AAUUCAU (DNA:RNA)
RNA: GGGAGACCGGAAUUCAGAUUGUCCAAUUCAUUUAAAUCCCGUCGUAGCCACCA
DNA 1: CAATCTGAATTCCGGTCTCCC
DNA 2: TGGTGGCTACGACGGGATT
B16: CUGUCUA (DNA:RNA)
RNA: B15 RNA with A25C, A26U, U27G, A30U, U31A
DNA 1: CAATCTGAATTCCGGTCTCCC
DNA 2: TGGTGGCTACGACGGGATT
B17: UAGUGAG (DNA:RNA)
RNA: B15 RNA with A25U, U27G, C29G, U31G
DNA 1: CAATCTGAATTCCGGTCTCCC
DNA 2: TGGTGGCTACGACGGGATT
B18: AGAGCUC (DNA:RNA)
RNA: B15 RNA with A26G, U27A, U28G, A30U, U31C
DNA 1: CAATCTGAATTCCGGTCTCCC
DNA 2: TGGTGGCTACGACGGGATT
B19: GGCAAAC (DNA:RNA)
RNA: B1 RNA with G27C, G29A, C30A, G31C
DNA 1: CAATCTGAATTCCGGTCTCCC
DNA 2: TGGTGGCTACGACGGGATT
B20: CCUGCAA (DNA:RNA)
RNA: B15 RNA with A25C, A26C, U28G, U31A
DNA 1: CAATCTGAATTCCGGTCTCCC
DNA 2: TGGTGGCTACGACGGGATT
B21: AAGAAUG (DNA:RNA)
RNA: B1 RNA with G25A, G26A, G29A, C30U
DNA 1: CAATCTGAATTCCGGTCTCCC
DNA 2: TGGTGGCTACGACGGGATT
B22: GACUUUA (DNA:RNA)
RNA: B15 RNA with A25G, U27C, C29U, A30U, U31A
DNA 1: CAATCTGAATTCCGGTCTCCC
DNA 2: TGGTGGCTACGACGGGATT
B23: UAGUUUC (DNA:RNA)
RNA: B15 RNA with A25U, U27G, C29U, A30U, U31C
DNA 1: CAATCTGAATTCCGGTCTCCC
DNA 2: TGGTGGCTACGACGGGATT
B24: CGGCUUA (DNA:RNA)
RNA: B1 RNA with G25C, A28C, G29U, C30U, G31A
DNA 1: CAATCTGAATTCCGGTCTCCC
DNA 2: TGGTGGCTACGACGGGATT
B25: GGAGUAA (DNA:RNA)
RNA: B1 RNA with G27A, A28G, G29U, C30A, G31A
DNA 1: CAATCTGAATTCCGGTCTCCC
DNA 2: TGGTGGCTACGACGGGATT
B26: UAGGUGU (DNA:RNA)
RNA: B15 RNA with A25U, U27G, U28G, C29U, A30G
DNA 1: CAATCTGAATTCCGGTCTCCC
DNA 2: TGGTGGCTACGACGGGATT
B27: UCGAACA (DNA:RNA)
RNA: B1 RNA with G25U, G26C, G29A, G31A
DNA 1: CAATCTGAATTCCGGTCTCCC
DNA 2: TGGTGGCTACGACGGGATT
B28: GCAGACA (DNA:RNA)
RNA: B1 RNA with G26C, G27A, A28G, G29A, G31A
DNA 1: CAATCTGAATTCCGGTCTCCC
DNA 2: TGGTGGCTACGACGGGATT
B29: UGUUGCA (DNA:RNA)
RNA: B1 RNA with G25U, G27U, A28U, G31A
DNA 1: CAATCTGAATTCCGGTCTCCC
DNA 2: TGGTGGCTACGACGGGATT
B30: UAGGGGG (DNA:RNA)
RNA: B1 RNA with G25U, G26A, A28G, C30G
DNA 1: CAATCTGAATTCCGGTCTCCC
DNA 2: TGGTGGCTACGACGGGATT
B31: GUUUGGC (DNA:RNA)
RNA: B15 RNA with A25G, A26U, C29G, A30G, U31C
DNA 1: CAATCTGAATTCCGGTCTCCC
DNA 2: TGGTGGCTACGACGGGATT

molecular target: T1, RBFOX1 RRM RbFoxmut (Fox-RRM*); assay: EMSA; HiTS-Eq, 1 nM pool, 10 min; buffer printed only for the single-RNA assays: 10 mM Tris pH 7.5, 150 mM NaCl, 3.4 mM EDTA, 0.001% NP-40, 30 C; conditions: tags: His6 N-terminal (pET28a); label: 5' 32P
How it was run: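 Purified RbFox RRM, wild type or mutant, was incubated for 10 min in 50 µL with 1 nM of a 5′-radiolabelled RNA pool carrying 7 randomized nucleotides, whose flanks were annealed to DNA oligonucleotides, over a series of increasing protein concentrations. Unbound RNA was resolved on 8% native PAGE, cut out, reverse-transcribed, barcoded by PCR and sequenced on an Illumina HiSeq 2500. Relative association constants were derived from changes in read counts for each RNA species versus the control reaction and normalised to the cognate motif.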

Row | Binder | binding signal
1 | B1 | 0.142 KA relative to UGCAUGU
2 | B2 | 0.118 KA relative to UGCAUGU
3 | B3 | 0.0516 KA relative to UGCAUGU
4 | B4 | 0.11 KA relative to UGCAUGU
5 | B5 | 0.117 KA relative to UGCAUGU
6 | B6 | 0.0829 KA relative to UGCAUGU
7 | B7 | 0.0774 KA relative to UGCAUGU
8 | B8 | 0.0566 KA relative to UGCAUGU
9 | B9 | 0.0744 KA relative to UGCAUGU
10 | B10 | 0.113 KA relative to UGCAUGU
11 | B11 | 0.132 KA relative to UGCAUGU
12 | B12 | 0.224 KA relative to UGCAUGU
13 | B13 | 0.128 KA relative to UGCAUGU
14 | B14 | 0.0649 KA relative to UGCAUGU
15 | B15 | 0.0962 KA relative to UGCAUGU
16 | B16 | 0.119 KA relative to UGCAUGU

Row | Binder | binding signal
17 | B17 | 0.109 KA relative to UGCAUGU
18 | B18 | 0.0741 KA relative to UGCAUGU
19 | B19 | 0.0591 KA relative to UGCAUGU
20 | B20 | 0.0957 KA relative to UGCAUGU
21 | B21 | 1.07 KA relative to UGCAUGU
22 | B22 | 0.123 KA relative to UGCAUGU
23 | B23 | 0.126 KA relative to UGCAUGU
24 | B24 | 0.112 KA relative to UGCAUGU
25 | B25 | 0.0983 KA relative to UGCAUGU
26 | B26 | 0.155 KA relative to UGCAUGU
27 | B27 | 0.0726 KA relative to UGCAUGU
28 | B28 | 0.0764 KA relative to UGCAUGU
29 | B29 | 0.265 KA relative to UGCAUGU
30 | B30 | 0.0988 KA relative to UGCAUGU
31 | B31 | 0.209 KA relative to UGCAUGU

Source: publication PMC9911399, “Two distinct binding modes provide the RNA-binding protein RbFox with extraordinary sequence specificity”
